Assay results published in the supplement of paper PMC11876631.
± gives the standard deviation of the averaged measurements. Laboratory Escherichia coli strains with one amino-acid change in an essential protein, pooled on minimal glucose agar with carbenicillin or gentamicin at twice the control MIC (plus kanamycin and chloramphenicol for the plasmids), 48 h. Fold change of barcode share against drug-free plates; higher = less susceptible. Active = above 20 in both replicates (the paper's putatively resistant). '<' = one read or none on drug, '>' = one read or none on a drug-free plate. Shares are relative, so most strains fall below 1 when a few take over. Listed are strains with at least 15 reads on both drug-free plates, and hits; most hits rest on fewer reference reads. Replicate rank correlation about 0.5. Edits are read from barcodes.

B1: gpsA; numbered along this chain (parent)
chain: MNQRNASMTVIGAGSYGTALAITLARNGHEVVLWGHDPEHIATLERDRCNAAFLPDVPFPDTLHLESDLATALAASRNILVVVPSHVFGEVLRQIKPLMRPDARLVWATKGLEAETGRLLQDVAREALGDQIPLAVISGPTFAKELAAGLPTAISLASTDQTFADDLQQLLHCGKSFRVYSNPDFIGVQLGGAVKNVIAIGAGMSDGIGFGANARTALITRGLAEMSRLGAALGADPATFMGMAGLGDLVLTCTDNQSRNRRFGMMLGQGMDVQSAQEKIGQVVEGYRNTKEVRELAHRFGVEMPITEEIYQVLYCGKNAREAALTLLGRARKDERSSH
B2: trpA; numbered along this chain (parent)
chain: MERYESLFAQLKERKEGAFVPFVTLGDPGIEQSLKIIDTLIEAGADALELGIPFSDPLADGPTIQNATLRAFAAGVTPAQCFEMLALIRQKHPTIPIGLLMYANLVFNKGIDEFYAQCEKVGVDSVLVADVPVEESAPFRQAALRHNVAPIFICPPNADDDLLRQIASYGRGYTYLLSRAGVTGAENRAALPLNHLVAKLKEYNAAPPLQGFGISAPDQVKAAIDAGAAGAISGSAIVKIIEQHINEPEKMLAALKVFVQPMKAATRS

Assays:
[1] = variants of: B1; assay: barcode share on antibiotic plates over drug-free plates; higher = less susceptible; conditions: with Escherichia coli (laboratory strain)
Experimental: (§1)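 A pool of E. coli strains, each edited to carry one amino-acid change in an essential protein, was grown for 48 h on minimal glucose agar with or without antibiotic; strain barcodes were sequenced; mean of two replicates.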

[2] = variants of: B2; assay: as above; conditions: with Escherichia coli (laboratory strain); remark: listed apart in the source
Experimental: as §1

[3] = antibiotic: carbenicillin, 2× MIC (3.1 µg/mL)
[4] = antibiotic: gentamicin, 2× MIC (MIC 0.45 µg/mL)

| Variant | fold change of barcode share [1, 3] | fold change of barcode share [1, 4] | fold change of barcode share [2, 3] | fold change of barcode share [2, 4] |
| --- | --- | --- | --- | --- |
| MNQRNASMTVIGAGSYGTALAITLARNGHEVVLWGHDPEHIATLERDRCNAAFLPDVPFPDTLHLESDLATALAASRNILVVVPSHVFGEVLRQIKPLMRPDARLVWATKGLEAETGRLLQDVAREALGDQIPLAVWSGPTFAKELAAGLPTAISLASTDQTFADDLQQLLHCGKSFRVYSNPDFIGVQLGGAVKNVIAIGAGMSDGIGFGANARTALITRGLAEMSRLGAALGADPATFMGMAGLGDLVLTCTDNQSRNRRFGMMLGQGMDVQSAQEKIGQVVEGYRNTKEVRELAHRFGVEMPITEEIYQVLYCGKNAREAALTLLGRARKDERSSH [I137W] | 0.46 ± 0.15 | 0.0541 ± 0.064 |  |  |
| MNQRNASMTVIGAGSYGTALAITLARNGHEVVLWGHDPEHIATLERDRCNAAFLPDVPFPDTLHLESDLATALAASRNILVVVPSHVFGEVLRQIKPLMRPDARLVWATKGLEAETGRLLQDVAREALGDQIPLAVISGPTFAKELAAGLPTAISLASTDQTFADDLQQLLHCGKSFRVYSNPDFIGVQLGGAAKNVIAIGAGMSDGIGFGANARTALITRGLAEMSRLGAALGADPATFMGMAGLGDLVLTCTDNQSRNRRFGMMLGQGMDVQSAQEKIGQVVEGYRNTKEVRELAHRFGVEMPITEEIYQVLYCGKNAREAALTLLGRARKDERSSH [V194A] | 0.329 ± 0.1 | 0.273 ± 0.38 |  |  |
| MNQRNASMTVIGAGSYGTALAITLARNGHEVVLWGHDPEHIATLERDRCNAAFLPDVPFPDTLHLESDLATALAASRNILVVVPSHVFGEVLRQIKPLMRPDARLVWATKGLEAETGRLLQDVAREALGDQIPLAVISGPTFAKELAAGLPTAISLASTDQTFADDLQQLLHCGKSFRVYSNPDFIGVQLGGADKNVIAIGAGMSDGIGFGANARTALITRGLAEMSRLGAALGADPATFMGMAGLGDLVLTCTDNQSRNRRFGMMLGQGMDVQSAQEKIGQVVEGYRNTKEVRELAHRFGVEMPITEEIYQVLYCGKNAREAALTLLGRARKDERSSH [V194D] | 0.273 ± 0.1 | 0.00574 ± 0.0049 |  |  |
| MNQRNASMTVIGAGSYGTALAITLARNGHEVVLWGHDPEHIATLERDRCNAAFLPDVPFPDTLHLESDLATALAASRNILVVVPSHVFGEVLRQIKPLMRPDARLVWATKGLEAETGRLLQDVAREALGDQIPLAVISGPTFAKELAAGLPTAISLASTDQTFADDLQQLLHCGKSFRVYSNPDFIGVQLGGAQKNVIAIGAGMSDGIGFGANARTALITRGLAEMSRLGAALGADPATFMGMAGLGDLVLTCTDNQSRNRRFGMMLGQGMDVQSAQEKIGQVVEGYRNTKEVRELAHRFGVEMPITEEIYQVLYCGKNAREAALTLLGRARKDERSSH [V194Q] | 0.36 ± 0.0048 | 0.0136 ± 0.0074 |  |  |
| MNQRNASMTVIGAGSYGTALAITLARNGHEVVLWGHDPEHIATLERDRCNAAFLPDVPFPDTLHLESDLATALAASRNILVVVPSHVFGEVLRQIKPLMRPDARLVWATKGLEAETGRLLQDVAREALGDQIPLAVISGPTFAKELAAGLPTAISLASTDQTFADDLQQLLHCGKSFRVYSNPDFIGVQLGGAWKNVIAIGAGMSDGIGFGANARTALITRGLAEMSRLGAALGADPATFMGMAGLGDLVLTCTDNQSRNRRFGMMLGQGMDVQSAQEKIGQVVEGYRNTKEVRELAHRFGVEMPITEEIYQVLYCGKNAREAALTLLGRARKDERSSH [V194W] | 0.764 ± 0.61 | 0.0047 ± 0.0026 |  |  |
| MNQRNASMTVIGAGSYGTALAITLARNGHEVVLWGHDPEHIATLERDRCNAAFLPDVPFPDTLHLESDLATALAASRNILVVVPSHVFGEVLRQIKPLMRPDARLVWATKGLEAETGRLLQDVAREALGDQIPLAVISGPTFAKELAAGLPTAISLASTDQTFADDLQQLLHCGKSFRVYSNPDFIGVQLGGAVKNVIAIGAGMSDGIGFGANARTALITRGLAEMSRLGAALGADPATFMGMAGLGDLVLTCTDNQSRNRRFGMMLGQGMDVQSAQEKIGQVVEGYRNTKEVRELAHRFGVEMPITEEAYQVLYCGKNAREAALTLLGRARKDERSSH [I310A] | 0.31 ± 0.16 |  |  |  |
| MNQRNASMTVIGAGSYGTALAITLARNGHEVVLWGHDPEHIATLERDRCNAAFLPDVPFPDTLHLESDLATALAASRNILVVVPSHVFGEVLRQIKPLMRPDARLVWATKGLEAETGRLLQDVAREALGDQIPLAVISGPTFAKELAAGLPTAISLASTDQTFADDLQQLLHCGKSFRVYSNPDFIGVQLGGAVKNVIAIGAGMSDGIGFGANARTALITRGLAEMSRLGAALGADPATFMGMAGLGDLVLTCTDNQSRNRRFGMMLGQGMDVQSAQEKIGQVVEGYRNTKEVRELAHRFGVEMPITEEQYQVLYCGKNAREAALTLLGRARKDERSSH [I310Q] | 0.108 ± 0.0058 | < 0.0143 |  |  |
| MNQRNASMTVIGAGSYGTALAITLARNGHEVVLWGHDPEHIATLERDRCNAAFLPDVPFPDTLHLESDLATALAASRNILVVVPSHVFGEVLRQIKPLMRPDARLVWATKGLEAETGRLLQDVAREALGDQIPLAVISGPTFAKELAAGLPTAISLASTDQTFADDLQQLLHCGKSFRVYSNPDFIGVQLGGAVKNVIAIGAGMSDGIGFGANARTALITRGLAEMSRLGAALGADPATFMGMAGLGDLVLTCTDNQSRNRRFGMMLGQGMDVQSAQEKIGQVVEGYRNTKEVRELAHRFGVEMPITEEWYQVLYCGKNAREAALTLLGRARKDERSSH [I310W] | > 69.1 [active] |  |  |  |
| MERYESLFAQLKERKEGAFVPFVTLGDPGIEQSLKIIDTLIEAGADALELGIPFSDPLADGPTIQNATLRAFAAGVTPAQCFEMLALIRQKHPTIPIGLLMYANLVFNKGIDEFYAQCEKVGVDSVLWADVPVEESAPFRQAALRHNVAPIFICPPNADDDLLRQIASYGRGYTYLLSRAGVTGAENRAALPLNHLVAKLKEYNAAPPLQGFGISAPDQVKAAIDAGAAGAISGSAIVKIIEQHINEPEKMLAALKVFVQPMKAATRS [V128W] |  |  | 0.374 ± 0.088 | < 0.00444 |
| MERYESLFAQLKERKEGAFVPFVTLGDPGIEQSLKIIDTLIEAGADALELGIPFSDPLADGPTIQNATLRAFAAGVTPAQCFEMLALIRQKHPTIPIGLLMYANLVFNKGIDEFYAQCEKVGVDSVLVADVPVEESAPFRQAALRHNVAPIFICPPNADDDLLRQIASYGRGYTYLLSRAGVTGAENRAALPLNHLVAKLKEYNAAPPLQGFGISAPDQVKAAIDAGAAGAISGSAIVKIAEQHINEPEKMLAALKVFVQPMKAATRS [I241A] |  |  | 0.523 ± 0.34 | 0.0254 ± 0.023 |
| MERYESLFAQLKERKEGAFVPFWTLGDPGIEQSLKIIDTLIEAGADALELGIPFSDPLADGPTIQNATLRAFAAGVTPAQCFEMLALIRQKHPTIPIGLLMYANLVFNKGIDEFYAQCEKVGVDSVLVADVPVEESAPFRQAALRHNVAPIFICPPNADDDLLRQIASYGRGYTYLLSRAGVTGAENRAALPLNHLVAKLKEYNAAPPLQGFGISAPDQVKAAIDAGAAGAISGSAIVKIIEQHINEPEKMLAALKVFVQPMKAATRS [V23W] |  |  | 0.957 ± 0.33 | 0.199 ± 0.26 |
